Reference: the supplement of paper PMC11417369
Some of the results follow.

These sequences were tested on PF3D7_0420300 AP2 domain 1 (GST-tagged) (assay: gcPBM binding intensity (ln(normalized median fluorescence intensity)); higher = stronger DNA binding).
How it was run: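 After 1 h on an Agilent 4 × 180k array of primer-extended double-stranded 36-bp intergenic genomic probes and negative controls, bound GST-tagged P. falciparum DNA-binding domains were detected with Alexa488 anti-GST antibody and scanned at 488 nm. The domains had been expressed in E. coli, and binding took place in 1× PBS with 1% milk, 0.2 mg/ml BSA, 0.5% salmon testes DNA and 0.03% Triton X-100. Binding intensity is the highest Masliner-normalised natural-log median intensity across replicate spots of either probe orientation.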

Sequence	gcPBM binding intensity (ln)
AAAAAAAAAAAAAACACACACACAATAGTATATAAA [CACACA_site957]	9.94
TTGTTACTGTTTTGGTGTACAAAAAAAAAAAATATA [XGTACX_site5762]	8.92
TACTTACTTACTTACTCACACACATATACAAAGAAA [CACACA_site3348]	9.63
AATACAGATAATACAACACACAAGTAATATAAACCT [CACACA_site5900]	10.1
TATATATATTTTTATGCACACACAAAGAAAATTTTC [CACACA_site8931]	9.6
TCATCCGTTTTAAGAAGTACATATTTGAACATATAA [XGTACX_site8040]	8.92
TTTTTTTCTTTTCAAACACACAATTGGTATATATTA [CACACA_site3320]	9.41
CATAGGATTATACTTTTGGAATATTATTAAATATGT [XGTACX_negctrl_site75]	9.14
TTTATTTTTTAATGTTGTACAATGTTGTTTAATCAA [XGTACX_site6489]	9.13
ACATGTCAAACATTTGCACACAAAAAAATAAAAATT [CACACA_site691]	9.41
ATATATAAAATTATATGTACATATATAATATATATA [XGTACX_site529]	9.16
TATATACAAAAATGCACACGAAAAGTAATATATATA [CACACA_site4173]	9.66
TATATAAAAATCAATTGTACTTTTTTTTTTTTTTTT [XGTACX_site7327]	8.95
AAATAACACATATATACACACATATAACTATAATAT [CACACA_site7298]	9.9
TATATATATATGTGCACACATATATAATATGTATAA [CACACA_site715]	9.41
AGTAGCATATTCTATTGTACATATATATATATATAT [XGTACX_site2980]	9.35
ATTAAAAACGGGTGTACACATATATAAATATATATA [CACACA_site4539]	9.46
ATATGTATATATGTATGTACGTACAAATTGTTGTAA [XGTACX_site8832]	9.38
TGTATAAAGATATATACACACATATTTATTTATATA [CACACA_site6493]	9.35

Sequence	gcPBM binding intensity (ln)
TACAAAATAACTAGCACACATATGTATAAACCTATA [CACACA_site3718]	9.54
ACCTGAAGAGTCAAACGTACAAATATTATAAAATGA [XGTACX_site3188]	9.13
TTAATACATTAAATATGTACTTATATATCTCAACTA [XGTACX_site3997]	9.11
GTTATATTTTTTTTTTGTACATAATATTGTATTGAC [XGTACX_site6338]	9.56
ATAATAAAAATATATACATGCATTATTATATATATA [TGCATGCA_site799]	9.19
CAACAATTTCGTCATACACACATTCAGAATATAGAT [CACACA_site7166]	9.68
TTATTTCGAAGAAAATGTACATATATAAATATATAC [XGTACX_site3308]	9
ATAATATTTTTTAATTGTACGTTCCATTTTTTTAAA [XGTACX_site1227]	9.36
ACTATCATTCATAGGTGTACCTAAATATATATATAT [XGTACX_site1696]	9.27
GATAATTACGGACACACACACACACGCACAACTAAA [CACACA_site7254]	10.3
CGAATATATTCTAGACGTACTATATAATATATATAT [XGTACX_site4953]	9.12
TCTTTTTCTTCTTATGTGCACATCAATTATGCTTCT	9.49
ATTGCAAGTTACTTGTGTACTTATAAGATTAAAAGA [XGTACX_site7696]	8.99
TAATAATACCCAAGCACACACACACCCATATATATA [CACACA_site4831]	10
AATATAAATAAAAACACACACAATGGTACATATATA [CACACA_site3671]	10
TACTGTGATAGCACCACACACGCAAAAGTGGGTATA [CACACA_site4749]	9.28
TTTAAATCGTTAAAAACACACAAAAAAAATCAATTA [CACACA_site2519]	9.34
TCTATACCAGAAAAGGGTACATATTTTGGATTGAAC [XGTACX_site8402]	9.11
ATTATGCACCAACACACACACACACTCCTAAAAAAT [CACACA_site8822]	10.3

Sequence	gcPBM binding intensity (ln)
TACATACATATATTATGTACATATTTTATTTTTATT [XGTACX_site1642]	9.38
TTTCTTTTAATAATTAAATATTTATTTATGATTATA [TGCATGCA_negctrl_site30]	8.76
AAAAAAAATTCGTGTGTGCGCATATATAATATATAA	9.6
AAGCATACATCAAGCACACACACACCCACAGAGACA [CACACA_site4362]	9.89
ATAAATATATATATCACACATATATAATTATATATA [CACACA_site4787]	9.25
TATGTAGTTTTAAAGTGTACTTATATATATTAATTG [XGTACX_site378]	9.3
ATAAATAAATAAATAAATAAATATACATATACATAT [CACACA_negctrl_site205]	9.39
AAGAAATAAAAAGAATGTACACAATATGTATTATAA [XGTACX_site4733]	9.35
TGGACAATTGTTTATTGTACTTAAATTTTATGTTCT [XGTACX_site8974]	9.12
AGCATTTTAAGTTATACACACATTTTGAATCTATAT [CACACA_site7599]	9.6
ATATACTATATTTTAACACACAAAAAAAAAAAATAT [CACACA_site1091]	9.5
AAATTATATATATTACGTACATAGAACTTTACAGAA [XGTACX_site6646]	9.34
ATGTTACACCGACACACACACATAAAAAAACAAAAA [CACACA_site5750]	9.86
TATATTTATATCCACTTCGTTTAACGCACAGATATA [CACACA_negctrl_site954]	9.23
ATTATAAAAATATATTGTACACAAAAATGTTTATAT [XGTACX_site5066]	9.02
TGAGATATAAAAATATGTACTTATGTATAAATATTT [XGTACX_site7746]	9.07
CCAAATTTATTTTGTAGTACTCCGTATAGATCAACA [XGTACX_site7945]	9.03
AAGTTTTTTTTTAACACACACATAATAAAATAAATA [CACACA_site446]	9.65
TATCCATATTTGTTCACACACACACCGATTTATATA [CACACA_site5888]	10.1
